Experimental data as given in PubChem BioAssay AID1794842 (National Center for Advancing Translational Sciences (NCATS), 2023).
Fewer than 10 of roughly 2,800 compounds were called active. The call rests on the fitted dose curve; in most records, active means well fitted curve in the direction sought with a large enough effect; inconclusive means small, poorly fitted or top-dose-only effect, or another doubt; inactive means no such curve, though single readings can be large or run the other way. This is one part of the list.

The molecules below were run against Metallo-beta-lactamase type 2 (Klebsiella pneumoniae) (UniProt C7C422) (assay: qHTS to identify inhibitors of the New Delhi Metallo-beta-lactamase (NDM): Meropenem screen against the machine-based learning selections.). Conditions: Purified NDM-1, meropenem hydrolysis, absorbance 300 nm; at 38.4 µM (top of the series) unless noted.
Sequence of UniProt C7C422 (C7C422 whole entry, looked up): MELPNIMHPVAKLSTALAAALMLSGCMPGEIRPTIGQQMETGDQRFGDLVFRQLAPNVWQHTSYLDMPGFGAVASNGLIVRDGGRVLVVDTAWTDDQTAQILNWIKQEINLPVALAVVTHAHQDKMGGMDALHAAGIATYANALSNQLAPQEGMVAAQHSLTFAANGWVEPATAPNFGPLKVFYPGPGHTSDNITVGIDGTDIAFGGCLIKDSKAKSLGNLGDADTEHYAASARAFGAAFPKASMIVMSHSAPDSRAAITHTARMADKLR
Procedure, shortened: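 Hydrolysis by 2 nM NDM-1 was followed by absorbance after >30 min compound preincubation in HEPES pH 7.0 buffer with 1 uM Zn2SO4. For nitrocefin (16.7 uM, 15 min, 485 nm) and meropenem (50 uM, 30 min, 300 nm), each substrate ran on separate plates.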
Further: % of control where 0% means no effect.

Structure (SMILES)	activity change, negative = inhibition
Cc1ccc(S(N)(=O)=O)cc1C(=O)N1CCC2(CCCNC2=O)C1 (stereo not given)	inactive: -0.823%
Cn1c(CCNC(=O)c2ccccc2C2CCNC2)nc2ccccc21 (stereo not given)	inactive: 48.8%
Cn1cnnc1CC1CCN(C(=O)c2cn3ccsc3n2)CC1	inactive: 1.51%
COc1ccc(-c2cc(-c3cccc(C(N)=O)c3)cn3cncc23)cc1	inactive: 29.1% [at 57.5 µM]
O=C(c1ccc2cccnc2c1O)N1CCCC(CCc2ccccc2F)C1 (stereo not given)	inactive: 101%
CN(CCO)CC1(O)CCCN(Cc2cccc(F)c2F)C1=O (stereo not given)	inactive: 7.29%
CC(C)NC(=O)N1CCN(C(=O)N2CCOCC2)[C@@H](C(=O)N[C@H](Cc2c[nH]c3ccccc23)C(N)=O)C1	inactive: 3.06%
OCc1cccc(-c2ccc3ncc(Nc4cccnc4)n3n2)c1	inactive: 46.3% [at 57.5 µM]
OCc1cc2n(n1)CCCN(Cc1cccc(OCc3ccccn3)c1)C2	inactive: -1.31%
CCCN(CC1CCOC1)C(=O)c1cc(Cl)ccc1F (stereo not given)	inactive: -2.61%
Cn1c(CNC(=O)c2cccc(C3CCNC3)c2)nc2ccccc21 (stereo not given)	inactive: 32.8%
CC(C)CC(=O)N1CCCC(Cc2nncn2C(C)C)C1 (stereo not given)	inactive: 1.48%
FC(F)(F)Oc1cccc(CN2CCNc3cc(Nc4cccnc4)ncc3C2)c1	inactive: -1.26% [at 57.5 µM]
Cc1ncsc1CN(Cc1ccccc1)C(=O)CCn1nnnc1CN1CCOCC1	inactive: 1.17%
CCc1ccccc1NC(=O)Cn1ccn2nc(-c3ccc(F)cc3)c(CO)c2c1=O	inactive: -0.362%
COc1ccc(NC(=O)N2CCOC(c3ccc(Cl)cc3)C2)c(C)c1 (stereo not given)	inactive: -2.56%
CC(C)(C)C(=O)N1CCC2(CC1)OCC(C(=O)NC1CC1)N2C(=O)c1ccc(F)cc1 (stereo not given)	inactive: -0.368%
Cc1cccnc1C(=O)N[C@@H]1CN(C2CCOCC2)C[C@H]1CN(C)C	inactive: -1.23%
Nc1ncccc1CN1C[C@H]2CN(C(=O)C3CCC3)C[C@@]2(C(=O)O)C1	inactive: 40.9%
OCCc1ccc(Nc2cnc3ccc(-c4cccc(CO)c4)nn23)cc1	inactive: 57.3% [at 57.5 µM]

Structure (SMILES)	activity change, negative = inhibition
CN1C(=O)CC(C(=O)O)C12CCN(C(=O)CCc1cccnc1)CC2 (stereo not given)	inactive: 3.38%
OC[C@@H]1O[C@H](CNCc2ccc(F)cc2)[C@H](N2CCOCC2)[C@@H]1O	inactive: 67% [at 57.5 µM]
CN(C(=O)C1CCCC1)C1CCc2ccccc2C1 (stereo not given)	inactive: 1.71% [at 57.5 µM]
Cc1ccccc1-c1cnc2[nH]cc(CC(=O)NCc3cccnc3)c2c1	inactive: 7.8% [at 57.5 µM]
c1cncc(Nc2cc3c(cn2)CN(Cc2c[nH]c4ccccc24)CCN3)c1	inactive: -0.317% [at 57.5 µM]
Cc1oc(C(O)c2cccc(O)c2)nc1C(=O)NCc1ccccc1 (stereo not given)	inactive: -1.22% [at 57.5 µM]
c1ccc(CCN2CCNc3cc(-c4cn[nH]c4)ncc3C2)cc1	inactive: -2.17% [at 57.5 µM]
OCC1CCCCN1CCNc1nccc(-c2cccnc2)n1 (stereo not given)	inactive: -0.494%
OC(c1nc(Nc2ccc(Cl)cc2)n[nH]1)C1CC1 (stereo not given)	inactive: 1.56% [at 76.7 µM]
O=C(N[C@H]1CO[C@H]2[C@@H]1OC[C@@H]2Nc1nccc(-c2cccc(F)c2)n1)c1ccccc1	inactive: 1.66% [at 57.5 µM]
Cc1oc(C(O)c2cccc(O)c2)nc1C(=O)Nc1ccccc1 (stereo not given)	inactive: -0.207% [at 57.5 µM]
COc1ccc(-c2noc(C(=O)O)c2[C@@H](C)NC(=O)c2ccccc2)cc1	inactive: 43.1% [at 57.5 µM]
Cc1ccc(C(=O)N2CCN(c3nnc4cccc(C)n34)CC2)cc1F	inactive: -3.29%
Cc1cccc(OCC2(CNC(=O)c3cnccn3)C[C@@H](O)[C@@H](O)C2)n1 (stereo not given in full)	inactive: 30.9% [at 57.5 µM]
Cc1ccccc1CN1C[C@H](O)C[C@H]1c1nc(-c2cccnc2)no1	inactive: 1.53% [at 57.5 µM]
O=C(c1ccccc1F)N1CCCC2(C1)C(=NC1CCCC1)NC(=O)N2c1cc(F)cc(F)c1 (stereo not given)	inactive: 0.622%
O=c1cc2c(nn1Cc1cccc(Br)c1)CCCCC2	inactive: -2.44%
CC(C)N1C(=O)[C@@H]2[C@@H](CCN2C(=O)CCCC(=O)O)N(Cc2cccc(F)c2)C1=O	inactive: -0.0117% [at 57.5 µM]
Oc1ccc(-c2cc3c(cn2)CN(Cc2ccccc2)CCN3)cc1F	inactive: 7.15% [at 57.5 µM]
CC1=C[C@@H](CO)[C@H](C(C)C)C[C@H]1CC(=O)NCc1ccc(F)cc1	inactive: -0.0017% [at 57.5 µM]
